# Experimental data taken from patent US20190169308A1 (ALLIGATOR BIOSCIENCE, published 2019).
# B1: 1210-1618LO6 (bispecific antibody, human IgG1, kappa)
# heavy: [no letters for about 100 residues]YYGGYYSAWMDYWGQGTLVTVSS[no letters for human IgG1 constant region with changes]GGGGSGGGGSEVQLLESGGGLVQPGGSLRLSCAASGFTFDYGSMYWVRQAPGKGLEWVSSISSGSGSTYYADSVKGRFTISRDNSKNTLYLQMNSLRAEDTAVYYCARSSYYGSYYSIDYWGQGTLVTVSSGGGGSGGGGSGGGGSDIQMTQSPSSLSASVGDRVTITCRASQSIRQYLNWYQQKPGKAPKLLIYGASSLQSGVPSRFSGSGSGTDFTLTISSLQPEDFATYYCQQYYDNLPTFGQGTKLEIK
# light: DIQMTQSPSSLSASVGDRVTITCRASQSISSYLNWYQQKPGKAPKLLIYAASSLQSGVPSRFSGSGSGTDFTLTISSLQPEDFATYYCQQTYGYLHTFGQGTKLEIKRTVAAPSVFIFPPSDEQLKSGTASVVCLLNNFYPREAKVQWKVDNALQSGNSQESVTEQDSKDSTYSLSSTLTLSKADYEKHKVYACEVTHQGLSSPVTKSFNRGEC
# B2: 1210-1618LO7 (bispecific antibody, human IgG1, kappa)
# heavy: [no letters for about 100 residues]YYGGYYSAWMDYWGQGTLVTVSS[no letters for human IgG1 constant region with changes]GGGGSGGGGSEVQLLESGGGLVQPGGSLRLSCAASGFTFDYGSMYWVRQAPGKGLEWVSSISSGSGSTYYADSVKGRFTISRDNSKNTLYLQMNSLRAEDTAVYYCARSSYYGSYYSIDYWGQGTLVTVSSGGGGSGGGGSGGGGSDIQMTQSPSSLSASVGDRVTITCRASQSISSYLNWYQQKPGKAPKLLIYAASSLQSGVPSRFSGSGSGTDFTLTISSLQPEDFATYYCQQYYDNLPTFGQGTKLEIK
# light: B1 light
# B3: 1210-1618LO9 (bispecific antibody, human IgG1, kappa)
# heavy: [no letters for about 100 residues]YYGGYYSAWMDYWGQGTLVTVSS[no letters for human IgG1 constant region with changes]GGGGSGGGGSEVQLLESGGGLVQPGGSLRLSCAASGFDFSYGSMYWVRQAPGKGLEWVSSISSGSGSTYYADSVKGRFTISRDNSKNTLYLQMNSLRAEDTAVYYCARSSYYGSYYSIDYWGQGTLVTVSSGGGGSGGGGSGGGGSDIQMTQSPSSLSASVGDRVTITCRASQSIRQYLNWYQQKPGKAPKLLIYGAESLQSGVPSRFSGSGSGTDFTLTISSLQPEDFATYYCQQYYDNLPTFGQGTKLEIK
# light: B1 light
# B4: 1210-1618LO13 (bispecific antibody, human IgG1, kappa)
# heavy: [no letters for about 100 residues]YYGGYYSAWMDYWGQGTLVTVSS[no letters for human IgG1 constant region with changes]GGGGSGGGGSEVQLLESGGGLVQPGGSLRLSCAASGFTFDYGSMYWVRQAPGKGLEWVSSISSGSGSTYYADSVKGRFTISRDNSKNTLYLQMNSLRAEDTAVYYCARSSYYGSYYSIDYWGQGTLVTVSSGGGGSGGGGSGGGGSDIQMTQSPSSLSASVGDRVTITCRASQSIRSYLNWYQQKPGKAPKLLIYGASSLHSGVPSRFSGSGSGTDFTLTISSLQPEDFATYYCQQYYDNLPTFGQGTKLEIK
# light: B1 light
# B5: 1210-1618LO5 (bispecific antibody, human IgG1, kappa)
# heavy: [no letters for about 100 residues]YYGGYYSAWMDYWGQGTLVTVSS[no letters for human IgG1 constant region with changes]GGGGSGGGGSEVQLLESGGGLVQPGGSLRLSCAASGFTFDYGSMYWVRQAPGKGLEWVSSISSGSGSTYYADSVKGRFTISRDNSKNTLYLQMNSLRAEDTAVYYCARSSYYGSYYSIDYWGQGTLVTVSSGGGGSGGGGSGGGGSDIQMTQSPSSLSASVGDRVTITCRASQSIRSYLNWYQQKPGKAPKLLIYSASSLQSGVPSRFSGSGSGTDFTLTISSLQPEDFATYYCQQYYDNLPTFGQGTKLEIK
# light: B1 light
# B6: 1210-1618LO8 (bispecific antibody, human IgG1, kappa)
# heavy: [no letters for about 100 residues]YYGGYYSAWMDYWGQGTLVTVSS[no letters for human IgG1 constant region with changes]GGGGSGGGGSEVQLLESGGGLVQPGGSLRLSCAASGFTFDYGSMYWVRQAPGKGLEWVSSISSGSGSTHYADSVKGRFTISRDNSKNTLYLQMNSLRAEDTAVYYCARSSYYGSYYSIDYWGQGTLVTVSSGGGGSGGGGSGGGGSDIQMTQSPSSLSASVGDRVTITCRASQSIRSYLNWYQQKPGKAPKLLIYGADSLQSGVPSRFSGSGSGTDFTLTISSLQPEDFATYYCQQYYDNLPTFGQGTKLEIK
# light: B1 light
# B7: 1210-1618LO4 (bispecific antibody, human IgG1, kappa)
# heavy: [no letters for about 100 residues]YYGGYYSAWMDYWGQGTLVTVSS[no letters for human IgG1 constant region with changes]GGGGSGGGGSEVQLLESGGGLVQPGGSLRLSCAASGFTFDYGSMYWVRQAPGKGLEWVSSISSGSGSTYYADSVKGRFTISRDNSKNTLYLQMNSLRAEDTAVYYCARSSYYGSYYSIDYWGQGTLVTVSSGGGGSGGGGSGGGGSDIQMTQSPSSLSASVGDRVTITCRASQSISQYLNWYQQKPGKAPKLLIYSAESLQSGVPSRFSGSGSGTDFTLTISSLQPEDFATYYCQQYYDNLPTFGQGTKLEIK
# light: B1 light
# B8: 1210-1618LO10 (bispecific antibody, human IgG1, kappa)
# heavy: [no letters for about 100 residues]YYGGYYSAWMDYWGQGTLVTVSS[no letters for human IgG1 constant region with changes]GGGGSGGGGSEVQLLESGGGLVQPGGSLRLSCAASGFTFDYGSMYWVRQAPGKGLEWVSSISSGSGSTHYADSVKGRFTISRDNSKNTLYLQMNSLRAEDTAVYYCARSSYYGSYYSIDYWGQGTLVTVSSGGGGSGGGGSGGGGSDIQMTQSPSSLSASVGDRVTITCRASQSISSYLNWYQQKPGKAPKLLIYGAESLQSGVPSRFSGSGSGTDFTLTISSLQPEDFATYYCQQYYDNLPTFGQGTKLEIK
# light: B1 light
# B9: 1210-1618LO2 (bispecific antibody, human IgG1, kappa)
# heavy: [no letters for about 100 residues]YYGGYYSAWMDYWGQGTLVTVSS[no letters for human IgG1 constant region with changes]GGGGSGGGGSEVQLLESGGGLVQPGGSLRLSCAASGFTFSYGSMYWVRQAPGKGLEWVSSISSGSGSTHYADSVKGRFTISRDNSKNTLYLQMNSLRAEDTAVYYCARSSYYGSYYSIDYWGQGTLVTVSSGGGGSGGGGSGGGGSDIQMTQSPSSLSASVGDRVTITCRASQSIRQYLNWYQQKPGKAPKLLIYSADSLQSGVPSRFSGSGSGTDFTLTISSLQPEDFATYYCQQYYDNLPTFGQGTKLEIK
# light: B1 light
# B10: 1210-1618LO11 (bispecific antibody, human IgG1, kappa)
# heavy: [no letters for about 100 residues]YYGGYYSAWMDYWGQGTLVTVSS[no letters for human IgG1 constant region with changes]GGGGSGGGGSEVQLLESGGGLVQPGGSLRLSCAASGFTFDYGSMYWVRQAPGKGLEWVSSISSGSGSTYYADSVKGRFTISRDNSKNTLYLQMNSLRAEDTAVYYCARSSYYGSYYSIDYWGQGTLVTVSSGGGGSGGGGSGGGGSDIQMTQSPSSLSASVGDRVTITCRASQSISSYLNWYQQKPGKAPKLLIYAASSLHSGVPSRFSGSGSGTDFTLTISSLQPEDFATYYCQQYYDNLPTFGQGTKLEIK
# light: B1 light
# B11: 1210-1618LO12 (bispecific antibody, human IgG1, kappa)
# heavy: [no letters for about 100 residues]YYGGYYSAWMDYWGQGTLVTVSS[no letters for human IgG1 constant region with changes]GGGGSGGGGSEVQLLESGGGLVQPGGSLRLSCAASGFTFSYGSMYWVRQAPGKGLEWVSSISSGSGSTHYADSVKGRFTISRDNSKNTLYLQMNSLRAEDTAVYYCARSSYYGSYYSIDYWGQGTLVTVSSGGGGSGGGGSGGGGSDIQMTQSPSSLSASVGDRVTITCRASQSISSYLNWYQQKPGKAPKLLIYGASSLHSGVPSRFSGSGSGTDFTLTISSLQPEDFATYYCQQYYDNLPTFGQGTKLEIK
# light: B1 light
# Target: T1, recombinant human CD137-Fc (R&D #838-4B) (human, UniProt Q07011 24-186)
# T1 construct: bought; also called CD137 (R&D #838-4B); not shown: Fc part, bought reagent, not described
# T1 sequence (Q07011 24-186 limits assumed): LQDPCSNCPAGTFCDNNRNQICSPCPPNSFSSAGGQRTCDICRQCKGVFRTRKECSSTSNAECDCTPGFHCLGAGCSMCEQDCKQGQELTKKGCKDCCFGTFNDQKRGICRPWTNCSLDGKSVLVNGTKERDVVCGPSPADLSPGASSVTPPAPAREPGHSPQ
# Assay: BLI Octet, bsAb on anti-Fab-CH1 tips, CD137-Fc as analyte
Kd,koff,kon,Binder
2.57 nM,0.000768 s⁻¹,299000 M⁻¹ s⁻¹,B1
2.86 nM,0.000814 s⁻¹,285000 M⁻¹ s⁻¹,B2
3.24 nM,0.00108 s⁻¹,332000 M⁻¹ s⁻¹,B3
2.82 nM,0.000995 s⁻¹,–,B4
2.56 nM,0.000672 s⁻¹,262000 M⁻¹ s⁻¹,B5
2.98 nM,0.000653 s⁻¹,219000 M⁻¹ s⁻¹,B6
2.38 nM,0.000687 s⁻¹,289000 M⁻¹ s⁻¹,B7
3.38 nM,0.000948 s⁻¹,280000 M⁻¹ s⁻¹,B8
1.64 nM,0.000461 s⁻¹,281000 M⁻¹ s⁻¹,B9
3.66 nM,0.00106 s⁻¹,289000 M⁻¹ s⁻¹,B10
2.38 nM,0.000911 s⁻¹,383000 M⁻¹ s⁻¹,B11
